The source of these data is publication PMC5504085 (Journal of medicinal chemistry, 2017).

SMILES strings stand for the structures.

For assay [1], the system named is influenza A virus A/WSN/1933 (H1N1). Kind of assay: Dose-response reporter assay against IAV. Format: cell-based. (In general: A reporter such as luciferase makes a cellular process visible.)
For assay [2], the system named is RSV N mRNA (recRSV-A2-L19F). As to conditions: MOI 3.0, 20-hour exposure.
Assay [3] has as its system vesicular stomatitis virus (VSV). Format: cell-based. Conditions: resynthesized 1a.

In the case of `Cc1ccoc1C(=O)N1CCCn2nc(C(=O)Nc3ccccc3)cc2C1` [Compound 1a, 5-(3-methylfuran-2-carbonyl)-N-phenyl-5,6,7,8-tetrahydro-4H-pyrazolo[1,5-a][1,4]diazepine-2-carboxamide], in assay [1], the “inhibition of influenza A virus A/WSN/1933 (H1N1)” value was “neither of these pathogens was inhibited”. Further, in assay [2], the “concentration above which reduction of RSV N mRNA was statistically significant” value is “exceeded 1 µM”. Moreover, the “relative amount of RSV N protein-encoding mRNA” value in assay [2] (0.1 to 10 µM, dose-dependent) is “reduced the relative amount of RSV N protein-encoding mRNA”. Further, the “inhibition of VSV” value in assay [3] is “neither of these pathogens was inhibited”.
